{"source": "PubChem BioAssay AID1240", "about": "(Sanford-Burnham Center for Chemical Genomics, 2008)", "note": "Among all 50,000 compounds or so, about 800 (1.6%) showed an effect of 50% or more. The list shows a part of the results.", "data": [{"target": "Bcl-2-like protein 10 (Homo sapiens) (UniProt Q9HD36)", "sequence (Q9HD36 whole entry, looked up)": "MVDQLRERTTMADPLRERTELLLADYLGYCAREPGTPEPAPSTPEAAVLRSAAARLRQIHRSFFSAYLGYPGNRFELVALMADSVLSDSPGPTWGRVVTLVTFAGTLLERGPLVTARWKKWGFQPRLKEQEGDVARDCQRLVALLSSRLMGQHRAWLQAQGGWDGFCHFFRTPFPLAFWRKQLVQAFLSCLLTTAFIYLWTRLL", "assay": "Phenotype converters, Bcl-B/TR3 peptide binding displacement, primary biochemical FP (AID 1240);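 also: 0% = Bcl-B with tracer peptide and DMSO and 100% = tracer peptide lacking Bcl-B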", "conditions": "GST-Bcl-B / FITC-TR3 peptide fluorescence polarization; stronger effect = higher value; compound at 3.75 mg/L", "units": {"displacement": "%"}, "values": [{"smiles": "CCCN1C(=O)/C(=C/c2nc3ccccc3c(=O)n2-c2ccccc2[N+](=O)[O-])c2ccccc21", "displacement": 1.7}, {"smiles": "COc1ccc(CC(=O)Nc2ccc(NC(=O)c3ccc(Cl)cc3Cl)cc2)cc1OC", "displacement": -1.6}, {"smiles": "O=C(O)CCCCCN1C(=O)/C(=C/c2cccc(F)c2)SC1=S", "displacement": -14.1}, {"smiles": "COc1ccc(OC)c(S(=O)(=O)n2cnc(C)c2)c1", "displacement": 1.4}, {"smiles": "COc1ccc2c(c1OC)C(=O)OC2Nc1cccc(C)n1", "note": "(stereo unspecified)", "displacement": -23.2}, {"smiles": "COc1ccc(S(=O)(=O)Nc2ccccc2C(N)=O)cc1Br", "displacement": 14.1}, {"smiles": "Cc1cc(C)c2oc(-c3ccc(NC(=O)/C=C/c4cccc([N+](=O)[O-])c4)cc3)nc2c1", "displacement": 1.5}, {"smiles": "O=[N+]([O-])c1ccc2nc(SCc3c[nH]c4ccccc34)sc2c1", "displacement": -4.8}, {"smiles": "Cc1ccc(-c2nc3cc(NC(=O)COc4ccccc4[N+](=O)[O-])ccc3o2)cc1", "displacement": -5.1}, {"smiles": "Cc1oc(-c2ccccc2)cc1C(=O)NC(Cc1ccccc1)C(=O)O", "note": "(stereo unspecified)", "displacement": 2.7}, {"smiles": "COc1ccc(N2C(=O)NC(=O)/C(=C\\c3cc(C)n(-c4cccc([N+](=O)[O-])c4)c3C)C2=O)cc1", "displacement": 32.8}, {"smiles": "CN(C)c1cccc(NS(=O)(=O)c2ccccc2)c1", "displacement": 9.1}, {"smiles": "O=C(/C=C/c1ccccc1)NNC(=O)c1cccnc1", "displacement": -3.4}, {"smiles": "C=COCCNC(=O)C(=O)Nc1ccccc1CC", "displacement": 3.1}, {"smiles": "COc1cc(C=NN2CCN(c3ccccn3)CC2)cc(OC)c1OC(C)=O", "displacement": -1.3}, {"smiles": "CC(=O)CCc1c(C)[nH]c2ccc(Br)cc2c1=S", "displacement": 0}, {"smiles": "N#C/C(=C\\c1ccc(-c2ccc([N+](=O)[O-])cc2Br)o1)C(N)=O", "displacement": 7.3}, {"smiles": "COc1cccc(C2CN(c3ccccc3)N=C2c2cccs2)c1OC", "note": "(stereo unspecified)", "displacement": 14.8}, {"smiles": "Cc1onc(-c2c(Cl)cccc2Cl)c1C(=O)Nc1ccc2ccccc2c1", "displacement": -3}, {"smiles": "O=C1NC(=O)c2ccc3c4c(ccc1c24)CC3", "displacement": 55.5}, {"smiles": "CCOC(=O)N1CCN(C(=O)Nc2ccc3nc4c5ccccc5c5ccccc5c4nc3c2)CC1", "displacement": 22.4}, {"smiles": "C#CCN1C(=O)C(=O)c2cc(Br)ccc21", "displacement": 5.4}, {"smiles": "CCOC(=O)C1=C(C)NC2=C(C(=O)CCC2)C1c1cc2c(cc1Cl)OCO2", "note": "(stereo unspecified)", "displacement": 1.7}, {"smiles": "CC(C)Oc1ccc(Cc2cnc(N)nc2N)cc1", "displacement": -7.1}, {"smiles": "Brc1cc(/C=N/Nc2ccccn2)oc1Br", "displacement": 6.8}, {"smiles": "CC1=CC(C)C2COC(c3ccc4c(c3)OCO4)C1C2C", "note": "(stereo unspecified)", "displacement": 17.7}, {"smiles": "O=c1c2c(nc3cc(-c4ccco4)[nH]n13)CCS2", "displacement": 78.9}, {"smiles": "Cc1cc(C)n(-c2ncnc3sc(C)c(C)c23)n1", "displacement": 0.1}, {"smiles": "O=[N+]([O-])c1ccc(N2CCN(S(=O)(=O)c3ccc4ccccc4c3)CC2)cc1N1CCCC1", "displacement": 6.4}, {"smiles": "CCOC(=O)C1=C(O)/C(=C/c2cccc(OC)c2O)N=C1C", "displacement": 38}, {"smiles": "CCOC(=O)c1c(NC(=O)c2ccc(-c3ccc([N+](=O)[O-])cc3)o2)sc2c1CCCC2", "displacement": -14.6}, {"smiles": "Nc1nc(-c2ccccc2)c(C(=O)c2ccccc2)s1", "displacement": 1}, {"smiles": "Cc1ccc(S(=O)(=O)NC(Cc2ccccc2)C(=O)Nc2nccs2)cc1", "note": "(stereo unspecified)", "displacement": 4.7}, {"smiles": "Cn1nc(-c2ccc(Br)cc2)cc1N", "displacement": 16.6}, {"smiles": "COc1ccc(/C=C2\\SC(=S)N(c3ccc(F)cc3)C2=O)cc1OC", "displacement": 105}, {"smiles": "COc1cccc(/C=N/N2CCN(Cc3ccc(Cl)cc3)CC2)c1", "displacement": 11.9}, {"smiles": "Cc1cccc(/C(N)=N/OC(=O)COc2ccc(Cl)cc2)c1", "displacement": 3.2}, {"smiles": "c1ccc(Cn2c(-c3ccco3)nc3ccccc32)cc1", "displacement": 13.6}, {"smiles": "O=C(CSc1nc2ccccc2n1Cc1ccccc1)N/N=C/c1ccccc1Br", "displacement": -8.8}, {"smiles": "O=C(N/N=C/c1cccc(Br)c1)c1cnccn1", "displacement": -7.5}, {"smiles": "Cc1oc2c(cc(O)c3ccccc32)c1C(=O)c1ccc(Cl)cc1", "displacement": 3}, {"smiles": "O=C(O)c1ccccc1C(=O)c1ccc(Cl)c(N2C(=O)c3ccccc3C2=O)c1", "displacement": 13.2}, {"smiles": "CCOC(=O)CC(NC(C)=O)c1ccc([N+](=O)[O-])cc1", "note": "(stereo unspecified)", "displacement": 3.3}, {"smiles": "O=C(O)c1cccc2c1NC(c1cccc3ccccc13)C1CC=CC21", "note": "(stereo unspecified)", "displacement": 25.1}, {"smiles": "O=C1c2c(Cl)ccc(Cl)c2C(=O)N1c1ccccc1O", "displacement": 9.8}, {"smiles": "COC(=O)c1cc(NC(=O)/C=C/c2ccc(Cl)cc2Cl)cc(C(=O)OC)c1", "displacement": -3.3}, {"smiles": "CC12CC3CC(C)(C1)CC(C(=O)CCC(=O)O)(C3)C2", "displacement": -11.6}, {"smiles": "O=C(/C=C/c1ccco1)Nc1ccc(C(=O)Nc2nccs2)cc1", "displacement": -61.5}, {"smiles": "COc1cccc(CN2CCN(S(C)(=O)=O)CC2)c1", "displacement": 14.3}, {"smiles": "O=C(COc1ccccc1[N+](=O)[O-])N/N=C/c1cccc(OC(=O)c2ccc3c(c2)OCO3)c1", "displacement": 6.3}, {"smiles": "CC(C)c1nnc(NC(=O)c2ccccc2)s1", "displacement": 3.9}, {"smiles": "CC1=C(C(=O)OCCOc2ccccc2)C(c2coc3ccc(C)cc3c2=O)C2=C(CCCC2=O)N1", "note": "(stereo unspecified)", "displacement": 12.4}, {"smiles": "CC(C)C(=O)Nc1ccc(Nc2ccccc2)cc1", "displacement": 10.1}, {"smiles": "CC1(C)c2ssc(=S)c2-c2ccccc2N1C(=O)c1ccccc1", "displacement": 1.3}, {"smiles": "COc1cc(C(=O)Nc2cc(Cl)ccc2C)cc(OC)c1OC", "displacement": -7.3}, {"smiles": "CC1=C(C(=O)Nc2ccc(C)cc2)C(c2ccccc2)NC(=S)N1", "note": "(stereo unspecified)", "displacement": 8.6}, {"smiles": "COC(=O)CCC(=O)Nc1ccc(C)cc1C", "displacement": 4.9}, {"smiles": "O=C1c2ccccc2C(=O)N1CCCc1nc2ccccc2c(=O)n1-c1cccnc1", "displacement": -6.1}, {"smiles": "O=C(Nc1ccc(NS(=O)(=O)c2cccc(S(=O)(=O)c3ccccc3)c2)cc1)c1ccccc1", "displacement": -8.7}, {"smiles": "CCOC(=O)c1ccccc1NC(=O)c1sc(NC(=O)Cc2ccc(OC)cc2)c(C(=O)OCC)c1C", "displacement": 5.4}, {"smiles": "O=S(=O)(CCc1nnc(-c2ccccc2)o1)c1ccc2ccccc2c1", "displacement": 7.3}, {"smiles": "NC1=NC(=O)C(Cc2cc(Cl)ccc2Cl)S1", "note": "(stereo unspecified)", "displacement": 5.2}, {"smiles": "COC(=O)c1c(C)oc2ccc(NS(=O)(=O)c3ccc4ccccc4c3)cc12", "displacement": 22.7}, {"smiles": "C=CCOc1ccc(C2C3=C(CC(C)(C)CC3=O)OC3=C2C(=O)CC(C)(C)C3)cc1OCC", "displacement": -1.4}, {"smiles": "Nc1nonc1N/N=C/c1ccc2nsnc2c1", "displacement": 2.5}, {"smiles": "Brc1ccc(C=NN2CCN(Cc3ccccc3)CC2)cc1", "displacement": -17.6}, {"smiles": "O=C(CSc1nc2ccccc2c(=O)n1-c1ccccc1)Nc1ccccc1", "displacement": 9}, {"smiles": "Cc1cccc(NC(=O)/C=C/c2cccc([N+](=O)[O-])c2)n1", "displacement": 15.9}, {"smiles": "CCSc1sc(CC)cc1C(=O)O", "displacement": 15.4}, {"smiles": "COC(=O)c1c(-c2ccccc2Cl)csc1NC(=O)C1C2CCC(C2)C1C(=O)O", "note": "(stereo unspecified)", "displacement": -8.2}, {"smiles": "CCCCNCCCCCOc1c(C)cccc1C", "displacement": 6.3}, {"smiles": "Cc1ccc(S(=O)(=O)NC(=O)OC(c2ccccc2)C(F)(F)F)cc1", "note": "(stereo unspecified)", "displacement": 8.8}, {"smiles": "CCOc1ccccc1N1CCN(C(=O)c2sc3ccccc3c2Cl)CC1", "displacement": -4.9}, {"smiles": "C=C(C)CNC(=S)Nc1sc2c(c1C(=O)OCC)CC(C)(C)OC2", "displacement": -2.7}, {"smiles": "Cc1sc2nc(-c3ccc(N(C)C)c(Br)c3)[nH]c(=O)c2c1C", "displacement": -11.6}, {"smiles": "C(=N\\N1CCN(c2ccccn2)CC1)/c1ccc2c(c1)OCO2", "displacement": -9.5}, {"smiles": "CCCOc1ccc(N2C(=O)CC(NCCNc3ccc([N+](=O)[O-])cn3)C2=O)cc1", "note": "(stereo unspecified)", "displacement": -1.7}, {"smiles": "CCN(CC)CCCCOc1ccc(Cl)cc1C", "displacement": -7.4}, {"smiles": "C/C(O)=C(\\C(=S)NC(=O)c1ccccc1)C(N)=NC(=O)c1ccccc1", "displacement": 14.9}, {"smiles": "COc1cccc(OC)c1C(=O)NCC12CC3CC(C1)CC(CNC(=O)c1c(OC)cccc1OC)(C3)C2", "displacement": 9.6}, {"smiles": "CCN(CC)c1ccc(NC(=O)c2ccc(Br)cc2)cc1", "displacement": 9.2}, {"smiles": "CC(C)(C)C1=CC(=O)C=C(C(C)(C)C)C1=O", "displacement": 2.3}, {"smiles": "COc1ccc(NC(=O)CN(c2ccc(C)c(Cl)c2)S(C)(=O)=O)cc1", "displacement": 3.4}, {"smiles": "COC(=O)/C(=C/c1c[nH]c2ccccc12)N=Cc1ccccc1", "displacement": 15.4}, {"smiles": "CCn1c2ccccc2c2nnc(SCC(N)=O)nc21", "displacement": -0.2}, {"smiles": "O=C(O)CSCCCN1C(=O)c2cccc3cccc(c23)C1=O", "displacement": 8}, {"smiles": "COc1cc([N+](=O)[O-])ccc1NC(=O)c1ccccc1", "displacement": 14}, {"smiles": "COc1ccc(C2CC(C(F)(F)F)n3nc(C(=O)NCCN4CCOCC4)cc3N2)cc1", "note": "(stereo unspecified)", "displacement": -1.2}, {"smiles": "COc1ccc(/C=C/C(=O)Nc2ccc3c(c2)oc2ccccc23)cc1", "displacement": 0.5}, {"smiles": "O=C(COc1ccccc1)NNc1c2ccccc2nc2ccccc12", "displacement": -3.6}, {"smiles": "CCN(CC)c1ccc(/C=C2\\SC(=S)N(CCc3ccccc3)C2=O)cc1", "displacement": 86}, {"smiles": "COc1ccc(NC(=O)CSc2nc3ccc(NC(=O)c4ccccc4)cc3s2)cc1", "displacement": 22.7}, {"smiles": "C=CCNC(=O)COc1ccc(Br)cc1", "displacement": 4.7}, {"smiles": "CCOc1ccc(NC(=O)c2ccccc2NC(=O)c2ccccc2Cl)cc1", "displacement": 13.8}, {"smiles": "O=C(COc1ccc2ccccc2c1)Nc1ccc(Cl)c(Cl)c1", "displacement": -1.7}, {"smiles": "Cc1cccc(OCC(=O)N/N=C/c2cc(Br)cc(I)c2O)c1", "displacement": 4.9}, {"smiles": "CCC/C(O)=C1\\C(=O)CC(C)(C)CC1=Nc1ccccc1C", "displacement": 3.7}, {"smiles": "Cc1occc1C(=O)Nc1ccccc1C(=O)O", "displacement": -0.6}, {"smiles": "Cn1cc(C(=O)N/N=C/c2ccc(Br)cc2)ccc1=O", "displacement": -4.2}, {"smiles": "COc1ccc(C2CC(=O)C3=C(C2)Nc2ccccc2NC3c2coc3ccc(C)cc3c2=O)cc1", "note": "(stereo unspecified)", "displacement": 7.6}, {"smiles": "CC1=C(C(=O)OC2CCCCCC2)C(c2ccccc2)NC(=O)N1", "note": "(stereo unspecified)", "displacement": -7.2}, {"smiles": "Clc1ccc(Nc2nc(-c3cccs3)cs2)cc1", "displacement": -1.2}, {"smiles": "COc1ccc(C(=O)Nc2ccc(C)c(Cl)c2)cc1OC", "displacement": 13.5}, {"smiles": "COc1ccc(Cc2nc3ccccc3n2CC(=O)NN)cc1OC", "displacement": -10.3}, {"smiles": "NC(=O)NC(c1ccc(Cl)cc1)c1ccccc1Cl", "note": "(stereo unspecified)", "displacement": -10.8}, {"smiles": "CCOc1ccc(N=Cc2ccc(OC(C)C)c(OC)c2)cc1", "displacement": 4.4}, {"smiles": "CCC1CCc2c(sc3nc(SCC(=O)NCCc4ccccc4)n(-c4ccccc4)c(=O)c23)C1", "note": "(stereo unspecified)", "displacement": 0}, {"smiles": "CCc1c(C)sc(NC(=O)c2ccc(Cl)cc2)c1C(N)=O", "displacement": 26.1}, {"smiles": "CCOc1ccc(-c2cc(C(=O)NC3CCCC3)c3ccccc3n2)cc1", "displacement": -12.3}, {"smiles": "COc1ccccc1N1CCN(/N=C/c2ccc(-c3ccccc3)cc2)CC1", "displacement": -8.7}, {"smiles": "O=C(c1ccccc1F)N1CCN(c2ccc([N+](=O)[O-])c(NC3CC3)c2)CC1", "displacement": 6.1}]}]}
